According to paper PMC4336329 (PLoS ONE, 2015):
Hit rate of the full screen: of about 310,000 compounds, about 14,000 (4.5%) showed an effect of 50% or more. The effect is printed as a negative number. Some of the results follow.

target: human ether-à-go-go-related gene (hERG) potassium channel (human, UniProt Q12809); assay: primary screen, population patch clamp on CHO cells stably expressing hERG
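Also: peak tail current of the secondary pulse compared with the same well before compound.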

Sequence of human ether-à-go-go-related gene (hERG) potassium channel (Q12809 whole entry, looked up): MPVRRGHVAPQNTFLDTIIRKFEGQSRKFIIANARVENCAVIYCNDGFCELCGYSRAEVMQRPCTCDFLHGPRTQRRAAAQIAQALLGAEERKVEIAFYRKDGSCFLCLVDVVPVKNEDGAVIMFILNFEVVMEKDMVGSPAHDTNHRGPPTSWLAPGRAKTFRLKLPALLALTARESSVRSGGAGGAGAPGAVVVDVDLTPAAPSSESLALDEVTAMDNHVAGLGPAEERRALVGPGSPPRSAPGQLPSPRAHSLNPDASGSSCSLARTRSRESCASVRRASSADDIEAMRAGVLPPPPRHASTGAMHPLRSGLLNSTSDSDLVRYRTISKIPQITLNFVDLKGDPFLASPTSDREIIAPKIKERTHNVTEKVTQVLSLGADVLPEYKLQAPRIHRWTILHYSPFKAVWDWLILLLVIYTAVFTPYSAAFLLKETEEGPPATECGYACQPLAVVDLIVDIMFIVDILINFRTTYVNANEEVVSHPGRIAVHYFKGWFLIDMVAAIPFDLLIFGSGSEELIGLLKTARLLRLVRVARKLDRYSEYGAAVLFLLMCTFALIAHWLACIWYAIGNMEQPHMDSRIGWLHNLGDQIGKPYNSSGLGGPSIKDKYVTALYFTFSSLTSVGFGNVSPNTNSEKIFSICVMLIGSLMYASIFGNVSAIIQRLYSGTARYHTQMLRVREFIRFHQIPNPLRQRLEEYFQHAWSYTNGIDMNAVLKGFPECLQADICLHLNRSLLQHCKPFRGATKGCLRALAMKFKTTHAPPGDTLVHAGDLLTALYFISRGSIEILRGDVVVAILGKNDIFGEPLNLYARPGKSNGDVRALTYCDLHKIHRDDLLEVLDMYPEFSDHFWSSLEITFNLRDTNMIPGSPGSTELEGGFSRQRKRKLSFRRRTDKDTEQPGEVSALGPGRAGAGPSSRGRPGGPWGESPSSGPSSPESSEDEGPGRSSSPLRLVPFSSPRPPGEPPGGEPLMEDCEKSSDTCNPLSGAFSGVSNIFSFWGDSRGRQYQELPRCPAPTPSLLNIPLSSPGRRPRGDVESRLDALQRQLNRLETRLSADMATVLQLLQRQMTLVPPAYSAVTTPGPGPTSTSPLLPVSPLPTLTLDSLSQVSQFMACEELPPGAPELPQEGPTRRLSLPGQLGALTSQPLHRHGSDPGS

| Compound | hERG current change (%, negative = inhibition) at 10uM |
| --- | --- |
| COCCCn1c(C)csc1=Nc1cccnc1 | 4.68% |
| O=C1Nc2ccccc2C(O)(C(=O)NCc2ccco2)N1c1ccc(Cl)cc1 (stereo not drawn) | 2.7% |
| O=C(CCC(=O)c1ccccc1)Nc1ccccc1OC(F)F | 8.02% |
| Cc1sc2nc(C)n(/N=C/c3ccc(O)cc3)c(=O)c2c1C | -7.05% |
| CN(C)S(=O)(=O)c1ccc(C(=O)OCC2COC(C)(C)O2)cc1 (stereo not drawn) | 15.7% |
| CCOC(=O)c1[nH]c(=O)[nH]c1CSc1nc(C)cc(C)n1 | 1.9% |
| O=C(COC(=O)[C@@H]1CCCN1S(=O)(=O)c1ccccc1F)NCc1ccc2c(c1)OCO2 | -7.58% |
| CN(C)CCOC(C1CCCCC1)C1CCCCC1.Cl | -20.2% |
| COc1ccc(N(CC(=O)N2CCc3ccccc32)S(=O)(=O)c2c(C)nn(C)c2C)cc1 | 6.68% |
| C=C(C)COc1ccc(-c2nc(N)ncc2Oc2ccc(OC)cc2)c(O)c1 | -3.75% |
| CCCCC1=CC2=C(c3ccco3)C(=O)C(C)(OC(=O)c3ccc(OC)cc3)C(=O)C2=CN1Cc1ccco1 (stereo not drawn) | -7.52% |
| COc1ccc(CC2(CO)CCN(Cc3cnn(C)c3C)CC2)cc1 | -21.6% |
| CCC(C)(C)n1nnnc1C(c1cc2cc(OC)ccc2[nH]c1=O)N1CCc2ccccc21 (stereo not drawn) | -1.46% |
| Nn1c(SCc2ccccc2F)nnc1-c1ccccn1 | 3.58% |
| CCN(CC)c1ccc(C(=O)OCC(=O)N2CCCC2)cc1 | 7.65% |
| COc1ccc(CNC(=O)C(c2ccncc2)N(C(=O)Cc2cccs2)c2cccc(C)c2)cc1 (stereo not drawn) | -9.37% |
| CC(C)CCNC(=O)C(=O)NCc1ccccc1 | 8.32% |
| CCOC(=O)CSc1nc2ccccc2c(=O)n1C | 10.1% |
| CCOc1ccccc1OC(C)C(=O)Nc1ccc(S(=O)(=O)N2CCCC2)cc1 (stereo not drawn) | -4.66% |
| Cn1c(CC(=O)Nc2ccccc2Cl)nnc1SCC(=O)NC1=NCCS1 | 14.7% |
| CC(C)Cc1nnc(NC(=O)Cc2cccs2)s1 | 12.4% |
| O=c1sc(N2CCN(c3ccc(F)cc3)CC2)nc2ccsc12 | -1.59% |
| Cc1cc(C(=O)N2CCN(C(c3ccccc3)c3ccccc3)CC2)on1 | -24.2% |

| Compound | hERG current change (%, negative = inhibition) at 10uM |
| --- | --- |
| CCOC(=O)c1c(OCC)[nH]c2ccc(O)cc12 | -2.73% |
| O=C(CN(Cc1ccccc1)C(=O)CNS(=O)(=O)c1ccc(F)cc1)NCC1CCCO1 (stereo not drawn) | 2.32% |
| CC(C)n1c(SCc2ccc(Cl)cc2)nc2c1c(=O)[nH]c(=O)n2C | 18.5% |
| CCOC(=O)N1CCN(Cc2nc(-c3cccc(C)c3)no2)CC1 | -33.6% |
| CCOc1cc(C2C(C#N)=C(N)Oc3n[nH]c(C)c32)ccc1OCCN1CCOCC1 (stereo not drawn) | 11.9% |
| COc1ccc(-c2nsc3c(N4CCN(S(=O)(=O)c5ccccc5F)CC4)ncnc23)cc1 | -17.4% |
| O=C(CSc1nnc(-c2ccc(NS(=O)(=O)c3ccccc3)cc2)o1)NCC1CCCO1 (stereo not drawn) | 16.2% |
| COc1cccc(-c2cn3nc4c(nc3n2)CCCC4)c1 | -41.9% |
| CC(C)[C@H](NC(=O)c1ccco1)C(=O)OCC(=O)NC12CC3CC(CC(C3)C1)C2 | -18.7% |
| CCOC(=O)N1CCC(NC(=O)CC(NS(=O)(=O)c2ccc(Cl)cc2)c2ccco2)CC1 (stereo not drawn) | -53% |
| CC(=O)Nc1cccc(N2CCCC2=O)c1 | -1.04% |
| CC1=C(C(N)=O)C(c2cccs2)NC(=O)N1 (stereo not drawn) | -1.46% |
| CCc1ccc(-c2nc(CS(=O)CC(=O)NCCc3ccccc3)c(C)o2)cc1 (stereo not drawn) | 6.8% |
| N#CCCn1ccc(NC(=O)c2ccc(Cl)cc2)n1 | 10.8% |
| COc1ccc2c(c1OC)C(=O)N(c1ncn[nH]1)C2 | 13.5% |
| O=C(CCC1CCCCC1)NCc1ccccn1 | -10.8% |
| O=C(/C=C/c1ccc(F)cc1)NCCNC(=O)/C=C/c1ccc(F)cc1 | 35.7% |
| O=C(NC1CCCCC1)NC1CC2CCC(C1)N2C(=S)NCc1ccco1 (stereo not drawn) | -6.63% |
| COc1cccc(C(=O)NNC(=O)C2CC(C)=C(C)CC2C(=O)O)c1 (stereo not drawn) | 13% |
| OCC1CCCN(C2CCN(Cc3nc(Cc4cccc(C(F)(F)F)c4)no3)CC2)C1 (stereo not drawn) | -74.1% |
| CC(=O)Oc1cc2c(C(=O)NCc3ccncc3)c(C)oc2c2ccccc12 | -12.1% |
| Cc1nc2c(c(C)nn2-c2ccccc2)c(C)c1CCC(=O)N1CCC2(CC1)OCCO2 | -32.3% |
